Experimental data as given in PubChem BioAssay AID743279 (National Center for Advancing Translational Sciences (NCATS), 2014).
The whole screen tested about 360,000 compounds, of which about 17,000 (4.7%) were called active. This list was built around the results that the source calls inconclusive (neither active nor inactive); the mix of calls is not that of the screen. Rule as the data show it: active = activity change below about -50%; inconclusive = mostly about -30% to -49%; inactive = weaker than that.

Test: qHTS for Inhibitors of Inflammasome Signaling: IL-1-beta AlphaLISA Primary Screen
Settings: THP-1 LPS/ATP IL-1B secretion, 16 h; at 57.5 µM, stronger effect = lower value
Outline: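 THP-1 cells pretreated 1 hr with compounds (up to 57.5 uM final), then stimulated with LPS (250 ng/mL final) plus ATP (1.25 mM final); secreted IL-1B measured by AlphaLISA after 16 hr, decreased signal indicating inhibition.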
% is scaled to controls: 0 for no effect and ±100 for the full control effect.

Q: With `Cc1cc(Br)ccc1NC(=O)CN1C(=O)C2C3CC(c4ccccc4)C(C3)C2C1=O` (stereo not given) as the compound, how does the activity change read?
A: Its activity change is inconclusive: -30.2%.

Q: For `Clc1ccccc1CN(Cc1ccccc1)C(c1cccs1)c1nnnn1C1CCCC1` (stereo not given), which activity change is on record?
A: The activity change was inconclusive: -34.8%.

Q: For `COc1ccc(C(=O)Nc2ccc(S(=O)(=O)N(C)c3ccccc3)cc2)cc1`, which activity change is on record?
A: Its activity change is active: -64.7%.

Q: Which activity change does the source give for `CCCCOc1ccc(S(=O)(=O)NCc2csc(C)n2)cc1` here?
A: Its activity change is inconclusive: -37.6%.

Q: For `O=C(Cc1csc(NC(=O)Nc2ccc(Cl)cc2)n1)NCc1cccnc1`, which activity change is on record?
A: The activity change was inconclusive: -35.5%.

Q: For `Cc1ccc(Sc2c(C)nn(C(=O)C3CC3)c2C)cc1`, which activity change is on record?
A: The activity change was inactive: -2.37%.

Q: With `O=C1NC[C@H](CCCCN2C[C@H](Cc3ccc(O)cc3)N(CC3CCCCC3)C(=O)C2=O)N(CCc2ccc(O)cc2)C1=O` as the compound, how does the activity change read?
A: The activity change was inactive: 9.04%.

Q: Which activity change does the source give for `CC(=O)Nc1cccc(C(=O)/C=C/c2ccc(C)cc2)c1` here?
A: Its activity change is active: -102%.

Q: Which activity change does the source give for `COc1ccc(C2C(C#N)=C(N)Oc3cc(O)ccc32)cc1` (stereo not given) here?
A: The activity change was inconclusive: -34%.

Q: Which activity change does the source give for `COc1ccccc1C(=O)Nn1c(C2CCC2)nc2ccccc2c1=O` here?
A: Its activity change is inactive: 8.95%.

Q: Which activity change does the source give for `Cc1cc(=O)n2c(ccc3ccccc32)c1C#N` here?
A: Its activity change is inactive: -8.29%.

Q: For `O=C(NC(=S)Nc1ccc2c(c1)OCCO2)c1ccc(F)cc1Cl`, which activity change is on record?
A: Its activity change is inconclusive: -46%.

Q: For `O=C(CSc1nnc(-c2ccccc2F)o1)N1CCNC1=O`, which activity change is on record?
A: Its activity change is inconclusive: -44.5%.

Q: Which activity change does the source give for `O=C(O)C[C@@H](O)C(=O)O` here?
A: Its activity change is inactive: 2.84%.

Q: Which activity change does the source give for `CCOc1cc(Br)c(C(=O)O)cc1OCC` here?
A: Its activity change is inactive: -4.99%.

Q: With `Cc1ccccc1OCC(=O)Nc1cccc(S(=O)(=O)NC2=NCCC2)c1` as the compound, how does the activity change read?
A: Its activity change is inconclusive: -33.7%.

Q: Which activity change does the source give for `COc1cc(C(=O)N2CCN(c3cccc(Cl)c3)CC2)ccc1OCC(=O)N1CCOCC1` here?
A: The activity change was inactive: -11.7%.

Q: With `COc1cc(C)c(CN2CCN(CC(=O)Nc3ccccc3C(=O)NC3CC3)CC2)cc1OC` as the compound, how does the activity change read?
A: Its activity change is inconclusive: -33.2%.

Q: With `COC(=O)c1cc2ccsc2n1CC(=O)Nc1cc(Cl)ccc1OC` as the compound, how does the activity change read?
A: Its activity change is inactive: -5.51%.

Q: With `CC(=O)c1ccc(Nc2nc(C(N)Cc3ccc(C(F)(F)F)cc3)cs2)cc1` (stereo not given) as the compound, how does the activity change read?
A: Its activity change is inconclusive: -33.7%.

Q: With `Cc1ccccc1C(=O)c1cccn1CC(=O)NCC(C)c1ccccc1` (stereo not given) as the compound, how does the activity change read?
A: The activity change was inconclusive: -33.8%.

Q: With `Cc1nn(-c2ccccc2)c2c1C(c1ccc(F)cc1)C(C#N)=C(N)O2` (stereo not given) as the compound, how does the activity change read?
A: The activity change was inconclusive: -38.9%.

Q: With `Cc1cc(Cl)ccc1OCC(=O)N/N=C/c1ccc(OC2OC(CO)C(O)C(O)C2O)cc1` (stereo not given) as the compound, how does the activity change read?
A: Its activity change is inactive: -12.9%.

Q: Which activity change does the source give for `C=CCOc1c(CNc2ccc(S(N)(=O)=O)cc2)cccc1OC` here?
A: The activity change was inconclusive: -34.7%.

Q: With `CC1CN(Cc2nnc(-c3ccccc3)o2)CC(C)O1` (stereo not given) as the compound, how does the activity change read?
A: The activity change was inactive: 32.8%.
